Some of the results follow.
System: PF3D7_0420300 AP2 domain 1 (GST-tagged)
Assay: gcPBM binding intensity (ln(normalized median fluorescence intensity)); higher = stronger DNA binding
Procedure, shortened: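 DNA-binding domains from P. falciparum, fused to GST and produced in E. coli, were put on an Agilent 4 × 180k double-stranded probe array for 1 h in 1× PBS holding 1% milk, 0.2 mg/ml BSA, 0.5% salmon testes DNA and 0.03% Triton X-100. Probes were primer-extended, 36 bp long and drawn from intergenic genomic regions, with negative controls included. After Alexa488 anti-GST antibody detection and a 488 nm scan, binding intensity was set as the highest Masliner-normalised natural-log median intensity across replicate spots of either probe orientation.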

Sequence	gcPBM binding intensity (ln)
GTTTATTAAACATTAGTGCAATTTTAATCCATTCTA	8.95
TAAAATAAAAATATAGTGCACAGATTTTGATATTTT [GTGCAC_site9696]	9.16
CTTTGTGGTATAGATACACACTATATTAAGATGAAC [CACACA_site5215]	9.15
CACATTATGTATCATACACACAAATAGATATATAAC [CACACA_site6434]	9.72
TGAAGGTTTCAAAAACGTACAAAAAAAAATGTTAGT [XGTACX_site8803]	9.27
TTTTTTTTTTATGGTACACACACGCGTATGGTTGCA [CACACA_site1876]	9.69
TTTAGAAATAAATACACACATACATTTTTGTATACA [CACACA_site718]	9.29
ATAATAAATGATAGCACACATATGTACATAAATACA [CACACA_site4634]	9.54
AACATATAAAAATGTGCACACACACCCATATATATA [CACACA_site1525]	9.97
TATCTTAACAATTAGTGTACAGATAACCAATTAAAA [XGTACX_site3184]	9
AATTAATGGAAACAAGTCAAATGATCTTTATGCATA [TGCATGCA_negctrl_site540]	9.13
AAATTGTAGAAGCGTATTTCTCGAACTGGATGAATA [CACACA_negctrl_site1373]	9.21
TTTATATCGACTCTTCTTTATATAAGTTGTGATGTT [TGCATGCA_negctrl_site362]	9.34
TAAAGTGTAAAGAAGGTGCTCATTATTTATTTTTTT	9.21
AGTTTCCTTGAGAAAAGTACGTAATACTACATATAT [XGTACX_site818]	9.15
AAAAAAGAAACAAACACACATACATACAAACAAACA [CACACA_site142]	10
ATATGATATATTTTATGTACATATAAAACATATATA [XGTACX_site4297]	9.13
TTATACTTTTTTTCTTGGTGTAGAAAAAAAAGTTAG [CACACA_negctrl_site1207]	8.81
TTTATATTAGGTCTTGAACGATTTTCATCATTATTA [TGCATGCA_negctrl_site100]	9.13

Sequence	gcPBM binding intensity (ln)
AATAAATATATAAATACACACAAACATACAGATATA [CACACA_site6088]	10
TTTAAAAGATAAAGACTGCACTTTAAGCACACAAAT [GTGCAC_site9752]	9.18
AATTCCTATAATGAGAGTACGCATTAGAACAGTAGG [XGTACX_site5721]	9.25
TTGATAAAAAAAAAAAAATAAAAAAAAAATAAAAAA [XGTACX_negctrl_site480]	8.95
AAAAAAGTAAAAAGTGCATGTAAAATATAAGTATCT [TGCATGCA_site55]	9.63
TTTTTTTTTTATTTTGCACACTTCTAATTTAGTTGT [CACACA_site3429]	9.32
GTTATTCTTAATTTTTGTACACATTTTTATATTATT [XGTACX_site7227]	9.76
ATATATATGTATATGTGTACTTATATTTGTCATTTT [XGTACX_site1317]	9.44
GAACAAAAGGAATGTTGTACATAAAAAATGAAAAAT [XGTACX_site3929]	9.33
AAAAAAATTAAACACACACACACATATATATATATA [CACACA_site4718]	10.1
AAAATTTAATATAATGCACACATAAAAAAAAATTCA [CACACA_site8640]	9.36
TCCTGCCTCTCTTTGGTGCGTTGTAACCCTCGAGGA	9.11
ATATTAATATACATATGTACATATATATATATATAT [XGTACX_site7425]	9.29
TAAATTATTTATAAAGCACACAAGAAAAAATAAAAT [CACACA_site2132]	9.68
TAAAGGCAAACAAACACACACACATATATACATATA [CACACA_site2123]	10.2
CCAATACTGTTTAAATGTACAAGTAGGAGGTTAATT [XGTACX_site7260]	9.41
AAAAATTAACAAAAGGTGCAAACAAATAGTGGTTTT [GTGCAC_site9998]	9.57
ATTATAATTGCATATACACACAAAGGTTCATAACAA [CACACA_site7440]	9.52
ACATATATAAAATAATGTACATTTTTAAGAATGCGT [XGTACX_site7654]	9.25

Sequence	gcPBM binding intensity (ln)
ACAGTATTTCGAGATGGTACACATATATATATATAT [XGTACX_site6880]	9.28
AAAAAAAAAAAAAAAAGGGGGGGAGGGATTGAAAAA [CACACA_negctrl_site193]	10
AATGAGGATATATACACACATACATTAAAAAAATAT [CACACA_site1849]	9.77
ATGAGTTACATGGGAAAAATATATATATATATATAT [CACACA_negctrl_site579]	9.19
TTTAAAAGATAAAACACACATACTAATAAAAAACAA [CACACA_site2556]	9.71
TTGTATCCTTAATGCATGCACCAAATAACAAAAGTA	9.05
TTGTTGTATTATTTATGTACATATGTATATGTATAT [XGTACX_site1315]	9.37
TGATAAATATGGAGCACACACACATAAACATACATA [CACACA_site420]	10.1
GATGTGATGTATTTGGTATTTTTCGATGTTGGTAGG [CACACA_negctrl_site355]	9.6
TATTATATATCAAAATGTACATTAATTTGAGTAATT [XGTACX_site5434]	9.02
TGTTCAGTAGGGCACACACACAACAAAATAAAAAAA [CACACA_site378]	9.79
TTACCTCTTTGAAATATACACACTAATCATATCAAC [CACACA_site8778]	9.35
TTTTTGCTATTCTATTATATATATAATATATTTTAC [CACACA_negctrl_site262]	9.46
CTTTTTTCAAAACACACACACAAGAAAATATATATA [CACACA_site3109]	9.92
TTTTTTTTTTTTGTGCGTACATACCATTTTAATAAT [XGTACX_site2760]	9.13
GAGATTTATTTATGTGCACACTAGAACAATTGGATC [CACACA_site2090]	9.45
AAGACATTTTTTAAGGTGCTTTGGAAAAAGGAGTAT [GTGCAC_site9816]	9.24
ACAAGTAATTAAGAGTGTACATAACTATAAATCCAA [XGTACX_site5215]	9.49
TATAATAAAATATGTACACACATACACCCATATATA [CACACA_site4808]	9.77
